The record followed here is paper PMC9911399, “Two distinct binding modes provide the RNA-binding protein RbFox with extraordinary sequence specificity”.

Substitutions are numbered along the chain they refer to; changes in the protein carry UniProt numbers. This is one part of the list.

To fix the notation:
B1: AAAAGUC (DNA:RNA)
RNA: GGGAGACCGGAAUUCAGAUUGUCCAAAAGUCUUAAAUCCCGUCGUAGCCACCA
DNA 1: CAATCTGAATTCCGGTCTCCC
DNA 2: TGGTGGCTACGACGGGATT
B2: CGUCUUU (DNA:RNA)
RNA: B1 RNA with A25C, A26G, A27U, A28C, G29U, C31U
DNA 1: CAATCTGAATTCCGGTCTCCC
DNA 2: TGGTGGCTACGACGGGATT
B3: UUACAGC (DNA:RNA)
RNA: B1 RNA with A25U, A26U, A28C, G29A, U30G
DNA 1: CAATCTGAATTCCGGTCTCCC
DNA 2: TGGTGGCTACGACGGGATT
B4: CACGUAC (DNA:RNA)
RNA: B1 RNA with A25C, A27C, A28G, G29U, U30A
DNA 1: CAATCTGAATTCCGGTCTCCC
DNA 2: TGGTGGCTACGACGGGATT
B5: UGACACC (DNA:RNA)
RNA: B1 RNA with A25U, A26G, A28C, G29A, U30C
DNA 1: CAATCTGAATTCCGGTCTCCC
DNA 2: TGGTGGCTACGACGGGATT
B6: CGCUACG (DNA:RNA)
RNA: GGGAGACCGGAAUUCAGAUUGUCCCGCUACGUUAAAUCCCGUCGUAGCCACCA
DNA 1: CAATCTGAATTCCGGTCTCCC
DNA 2: TGGTGGCTACGACGGGATT
B7: CCGCUAC (DNA:RNA)
RNA: B1 RNA with A25C, A26C, A27G, A28C, G29U, U30A
DNA 1: CAATCTGAATTCCGGTCTCCC
DNA 2: TGGTGGCTACGACGGGATT
B8: GGUAACG (DNA:RNA)
RNA: B6 RNA with C25G, C27U, U28A
DNA 1: CAATCTGAATTCCGGTCTCCC
DNA 2: TGGTGGCTACGACGGGATT
B9: AUCGGUA (DNA:RNA)
RNA: B1 RNA with A26U, A27C, A28G, C31A
DNA 1: CAATCTGAATTCCGGTCTCCC
DNA 2: TGGTGGCTACGACGGGATT
B10: ACUAAAA (DNA:RNA)
RNA: B1 RNA with A26C, A27U, G29A, U30A, C31A
DNA 1: CAATCTGAATTCCGGTCTCCC
DNA 2: TGGTGGCTACGACGGGATT
B11: GCGGAGC (DNA:RNA)
RNA: B1 RNA with A25G, A26C, A27G, A28G, G29A, U30G
DNA 1: CAATCTGAATTCCGGTCTCCC
DNA 2: TGGTGGCTACGACGGGATT
B12: AUCUAGC (DNA:RNA)
RNA: B6 RNA with C25A, G26U, C30G, G31C
DNA 1: CAATCTGAATTCCGGTCTCCC
DNA 2: TGGTGGCTACGACGGGATT
B13: AAGAAGC (DNA:RNA)
RNA: B1 RNA with A27G, G29A, U30G
DNA 1: CAATCTGAATTCCGGTCTCCC
DNA 2: TGGTGGCTACGACGGGATT
B14: UUUAUGA (DNA:RNA)
RNA: B1 RNA with A25U, A26U, A27U, G29U, U30G, C31A
DNA 1: CAATCTGAATTCCGGTCTCCC
DNA 2: TGGTGGCTACGACGGGATT
B15: ACACUUA (DNA:RNA)
RNA: B1 RNA with A26C, A28C, G29U, C31A
DNA 1: CAATCTGAATTCCGGTCTCCC
DNA 2: TGGTGGCTACGACGGGATT
B16: CUGUGGA (DNA:RNA)
RNA: B6 RNA with G26U, C27G, A29G, C30G, G31A
DNA 1: CAATCTGAATTCCGGTCTCCC
DNA 2: TGGTGGCTACGACGGGATT
B17: UAGGACA (DNA:RNA)
RNA: B6 RNA with C25U, G26A, C27G, U28G, G31A
DNA 1: CAATCTGAATTCCGGTCTCCC
DNA 2: TGGTGGCTACGACGGGATT
B18: CACCGAC (DNA:RNA)
RNA: B1 RNA with A25C, A27C, A28C, U30A
DNA 1: CAATCTGAATTCCGGTCTCCC
DNA 2: TGGTGGCTACGACGGGATT
B19: UCAUUAC (DNA:RNA)
RNA: B1 RNA with A25U, A26C, A28U, G29U, U30A
DNA 1: CAATCTGAATTCCGGTCTCCC
DNA 2: TGGTGGCTACGACGGGATT
B20: GAAUUGG (DNA:RNA)
RNA: B1 RNA with A25G, A28U, G29U, U30G, C31G
DNA 1: CAATCTGAATTCCGGTCTCCC
DNA 2: TGGTGGCTACGACGGGATT
B21: AGUAGUG (DNA:RNA)
RNA: B1 RNA with A26G, A27U, C31G
DNA 1: CAATCTGAATTCCGGTCTCCC
DNA 2: TGGTGGCTACGACGGGATT
B22: UAUAUAG (DNA:RNA)
RNA: B1 RNA with A25U, A27U, G29U, U30A, C31G
DNA 1: CAATCTGAATTCCGGTCTCCC
DNA 2: TGGTGGCTACGACGGGATT
B23: UUCAACA (DNA:RNA)
RNA: B6 RNA with C25U, G26U, U28A, G31A
DNA 1: CAATCTGAATTCCGGTCTCCC
DNA 2: TGGTGGCTACGACGGGATT
B24: AAGACGU (DNA:RNA)
RNA: B1 RNA with A27G, G29C, U30G, C31U
DNA 1: CAATCTGAATTCCGGTCTCCC
DNA 2: TGGTGGCTACGACGGGATT
B25: CAACGCA (DNA:RNA)
RNA: B1 RNA with A25C, A28C, U30C, C31A
DNA 1: CAATCTGAATTCCGGTCTCCC
DNA 2: TGGTGGCTACGACGGGATT
B26: CUAUAGA (DNA:RNA)
RNA: B6 RNA with G26U, C27A, C30G, G31A
DNA 1: CAATCTGAATTCCGGTCTCCC
DNA 2: TGGTGGCTACGACGGGATT
B27: UUUGAUC (DNA:RNA)
RNA: B1 RNA with A25U, A26U, A27U, A28G, G29A
DNA 1: CAATCTGAATTCCGGTCTCCC
DNA 2: TGGTGGCTACGACGGGATT
B28: CUUGAAG (DNA:RNA)
RNA: B6 RNA with G26U, C27U, U28G, C30A
DNA 1: CAATCTGAATTCCGGTCTCCC
DNA 2: TGGTGGCTACGACGGGATT
B29: GAACCCA (DNA:RNA)
RNA: B1 RNA with A25G, A28C, G29C, U30C, C31A
DNA 1: CAATCTGAATTCCGGTCTCCC
DNA 2: TGGTGGCTACGACGGGATT
B30: GCGGAAA (DNA:RNA)
RNA: B6 RNA with C25G, G26C, C27G, U28G, C30A, G31A
DNA 1: CAATCTGAATTCCGGTCTCCC
DNA 2: TGGTGGCTACGACGGGATT
B31: CGAGUUG (DNA:RNA)
RNA: B6 RNA with C27A, U28G, A29U, C30U
DNA 1: CAATCTGAATTCCGGTCTCCC
DNA 2: TGGTGGCTACGACGGGATT

The target in the assay is T1, RBFOX1 RRM (Homo sapiens, UniProt Q9NWB1 109-208).
T1 sequence: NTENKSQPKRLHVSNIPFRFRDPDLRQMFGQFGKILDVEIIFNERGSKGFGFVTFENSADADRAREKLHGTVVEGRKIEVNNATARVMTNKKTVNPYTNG
Briefly: EMSA; HiTS-Eq, 1 nM pool, 10 min; buffer printed only for the single-RNA assays: 10 mM Tris pH 7.5, 150 mM NaCl, 3.4 mM EDTA, 0.001% NP-40, 30 C. To be noted: tags: His6 N-terminal (pET28a); label: 5' 32P. The method in brief: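 Relative association constants, normalised to the cognate motif, were derived by comparing read counts of each RNA species with those of the control reaction. The RNA sequenced was the free fraction, separated by 8% native PAGE after a 10 min equilibration in 50 µL of 1 nM 5′-radiolabelled RNA (7 randomized nucleotides) with increasing concentrations of purified wild-type or mutant RbFox RRM.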
In the case of B1, the binding signal is 0.00273 KA relative to UGCAUGU. For B2, the binding signal is 0.0124 KA relative to UGCAUGU.

Turning to B3, the binding signal was 0.00644 KA relative to UGCAUGU. For B4, the binding signal was 0.00332 KA relative to UGCAUGU.

For B5, the binding signal is 0.00783 KA relative to UGCAUGU.

As for B6, the binding signal was 0.0115 KA relative to UGCAUGU.

Consider B7, for which the binding signal is 0.00667 KA relative to UGCAUGU. Consider B8, for which the binding signal was 0.00744 KA relative to UGCAUGU. To B9 belongs 0.00891 KA relative to UGCAUGU. To B10 belongs 0.00144 KA relative to UGCAUGU; to B11, 0.0117 KA relative to UGCAUGU. To B12 belongs 0.00476 KA relative to UGCAUGU. Turning to B13, the binding signal is 0.00325 KA relative to UGCAUGU.

In the case of B14, the binding signal is 0.0154 KA relative to UGCAUGU. Next, B15: 0.00118 KA relative to UGCAUGU; B16: 0.00908 KA relative to UGCAUGU. Next, B17: 0.00163 KA relative to UGCAUGU; B18: 0.00223 KA relative to UGCAUGU; B19: 0.00273 KA relative to UGCAUGU. Take B20: the binding signal was 0.0144 KA relative to UGCAUGU. Next, B21: 0.0106 KA relative to UGCAUGU; B22: 0.0105 KA relative to UGCAUGU.

For B23, the binding signal is 0.00131 KA relative to UGCAUGU.

On to B24, for which the binding signal is 0.00364 KA relative to UGCAUGU. With B25, the binding signal was 0.00465 KA relative to UGCAUGU. For B26, the binding signal was 0.00833 KA relative to UGCAUGU. With B27, the binding signal is 0.0148 KA relative to UGCAUGU. B28: the binding signal was 0.0157 KA relative to UGCAUGU. Next, B29: 0.00229 KA relative to UGCAUGU; B30: 0.00927 KA relative to UGCAUGU. To B31 belongs 0.0155 KA relative to UGCAUGU.
